Numbering of substitutions follows the chain as printed. In names and notes the source's numbering stands. Read-outs that look alike come from different tables or passages of the source. No constants are given. Whether binding was seen depends on the method and setting. In cells and extracts the contact can be indirect. Some results given as binding are weak or reduced against the parent protein; the word gives no strength. Tags and fused reporters may be left off the sequences shown.
T1: endoglin S480C, EYFP-tagged (human, UniProt P17813 26-658, S480C)
T1 construct: endoglin (CD105), human, missense mutant S480C (found in a Scottish HHT family); site-directed mutagenesis on pCMV5-endoglin wild type, moved into pEYFP-N1; also called mutant S480C; source: CHO cells, transiently co-transfected (50 ng of each construct per 100 000 cells), in living cells; not shown: EYFP, C-terminal, kept
T1 sequence (looked up): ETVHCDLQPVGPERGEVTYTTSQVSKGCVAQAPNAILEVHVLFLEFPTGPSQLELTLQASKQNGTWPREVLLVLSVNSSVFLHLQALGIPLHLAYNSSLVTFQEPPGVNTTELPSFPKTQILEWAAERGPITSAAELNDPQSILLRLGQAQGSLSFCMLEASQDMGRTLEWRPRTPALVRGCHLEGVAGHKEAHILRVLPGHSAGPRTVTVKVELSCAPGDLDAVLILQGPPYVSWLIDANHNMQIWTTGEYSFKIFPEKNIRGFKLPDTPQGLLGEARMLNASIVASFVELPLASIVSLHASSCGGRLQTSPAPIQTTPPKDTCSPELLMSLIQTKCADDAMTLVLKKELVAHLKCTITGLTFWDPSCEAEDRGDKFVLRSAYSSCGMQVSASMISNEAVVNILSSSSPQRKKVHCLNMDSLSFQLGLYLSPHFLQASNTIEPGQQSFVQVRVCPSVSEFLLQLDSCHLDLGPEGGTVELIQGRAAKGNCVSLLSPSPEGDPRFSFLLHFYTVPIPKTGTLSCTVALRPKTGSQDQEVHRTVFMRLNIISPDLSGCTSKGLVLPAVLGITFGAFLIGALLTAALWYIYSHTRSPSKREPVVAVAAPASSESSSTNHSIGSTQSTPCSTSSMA

Protein sequences, listed by entry. Tags and fused reporters are not part of them. Residues count along the entry.
UniProt P37023, residues 22-503: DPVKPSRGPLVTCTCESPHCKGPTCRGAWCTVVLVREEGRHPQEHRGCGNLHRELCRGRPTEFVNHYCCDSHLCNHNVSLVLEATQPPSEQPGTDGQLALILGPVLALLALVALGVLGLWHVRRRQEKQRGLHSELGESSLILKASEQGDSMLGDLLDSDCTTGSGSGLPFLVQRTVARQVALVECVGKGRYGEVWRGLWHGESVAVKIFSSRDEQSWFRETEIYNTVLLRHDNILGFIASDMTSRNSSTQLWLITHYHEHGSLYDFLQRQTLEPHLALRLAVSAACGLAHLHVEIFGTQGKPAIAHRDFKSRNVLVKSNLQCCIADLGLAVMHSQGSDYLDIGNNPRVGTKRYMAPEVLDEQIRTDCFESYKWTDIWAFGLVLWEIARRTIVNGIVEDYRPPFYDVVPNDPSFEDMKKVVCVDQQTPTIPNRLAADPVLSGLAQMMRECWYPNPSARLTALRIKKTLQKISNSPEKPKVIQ
UniProt P21728: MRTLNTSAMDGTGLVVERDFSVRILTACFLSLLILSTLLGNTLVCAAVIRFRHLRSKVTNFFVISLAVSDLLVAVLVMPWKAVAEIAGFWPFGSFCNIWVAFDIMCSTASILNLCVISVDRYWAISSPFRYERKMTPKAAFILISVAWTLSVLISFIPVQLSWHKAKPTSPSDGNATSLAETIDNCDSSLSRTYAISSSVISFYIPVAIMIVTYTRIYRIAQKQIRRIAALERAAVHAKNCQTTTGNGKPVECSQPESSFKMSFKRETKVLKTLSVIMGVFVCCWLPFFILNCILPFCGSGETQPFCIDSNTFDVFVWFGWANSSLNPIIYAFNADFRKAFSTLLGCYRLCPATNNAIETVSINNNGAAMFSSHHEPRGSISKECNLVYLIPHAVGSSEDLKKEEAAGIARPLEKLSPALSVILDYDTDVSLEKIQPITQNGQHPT

T2: endoglin G52V, EYFP-tagged (with an ECFP-tagged copy for the homodimer) (human) (UniProt P17813)
T2 sequence: T1 sequence (looked up) with G27V, C455S

T3: endoglin wild-type, split-EYFP (BiFC) fusion (human) (UniProt P17813)
T3 sequence: T1 sequence (looked up) with C455S

B1: endoglin wild-type, split-EYFP (BiFC) fusion (receptor, UniProt P17813 26-658)
chain: T1 sequence (looked up) with C455S
B2: endoglin S480C, split-EYFP (BiFC) fusion (receptor, UniProt P17813 26-658)
chain: T1 sequence (looked up)
B3: endoglin G52V, split-EYFP (BiFC) fusion (receptor, UniProt P17813 26-658)
chain: T1 sequence (looked up) with G27V, C455S
B4: endoglin G413V, split-EYFP (BiFC) fusion (receptor, UniProt P17813 26-658)
chain: T1 sequence (looked up) with G388V, C455S
B5: ALK5, ECFP- or EYFP-tagged (receptor, UniProt P36897 34-503, looked up)
chain: LQCFCHLCTKDNFTCVTDGLCFVSVTETTDKVIHNSMCIAEIDLIPRDRPFVCAPSSKTGSVTTTYCCNQDHCNKIELPTTVKSSPGLGPVELAAVIAGPVCFVCISLMLMVYICHNRTVIHHRVPNEEDPSLDRPFISEGTTLKDLIYDMTTSGSGSGLPLLVQRTIARTIVLQESIGKGRFGEVWRGKWRGEEVAVKIFSSREERSWFREAEIYQTVMLRHENILGFIAADNKDNGTWTQLWLVSDYHEHGSLFDYLNRYTVTVEGMIKLALSTASGLAHLHMEIVGTQGKPAIAHRDLKSKNILVKKNGTCCIADLGLAVRHDSATDTIDIAPNHRVGTKRYMAPEVLDDSINMKHFESFKRADIYAMGLVFWEIARRCSIGGIHEDYQLPYYDLVPSDPSVEEMRKVVCEQKLRPNIPNRWQSCEALRVMAKIMRECWYANGAARLTALRIKKTLSQLSQQEGIKM
notes: ALK5, TGF-β type I receptor; The methods name only the EYFP version; the results use an ECFP-tagged version; also called ALK5-EYFP; source: CHO cells, transiently co-transfected, in living cells
B6: TβRII, ECFP- or EYFP-tagged (receptor, UniProt P37173 23-567, looked up)
chain: TIPPHVQKSVNNDMIVTDNNGAVKFPQLCKFCDVRFSTCDNQKSCMSNCSITSICEKPQEVCVAVWRKNDENITLETVCHDPKLPYHDFILEDAASPKCIMKEKKKPGETFFMCSCSSDECNDNIIFSEEYNTSNPDLLLVIFQVTGISLLPPLGVAISVIIIFYCYRVNRQQKLSSTWETGKTRKLMEFSEHCAIILEDDRSDISSTCANNINHNTELLPIELDTLVGKGRFAEVYKAKLKQNTSEQFETVAVKIFPYEEYASWKTEKDIFSDINLKHENILQFLTAEERKTELGKQYWLITAFHAKGNLQEYLTRHVISWEDLRKLGSSLARGIAHLHSDHTPCGRPKMPIVHRDLKSSNILVKNDLTCCLCDFGLSLRLDPTLSVDDLANSGQVGTARYMAPEVLESRMNLENVESFKQTDVYSMALVLWEMTSRCNAVGEVKDYEPPFGSKVREHPCVESMKDNVLRDRGRPEIPSFWLNHQGIQMVCETLTECWDHDPEARLTAQCVAERFSELEHLDRLSGRSCSEEKIPEDGSLNTTK
notes: TβRII, TGF-β type II receptor; The methods name only the EYFP version; the results use an ECFP-tagged version; also called TβRII-EYFP; TGF-β type-II receptor; source: CHO cells, transiently co-transfected, in living cells

Columns and labels:
[1] = target: T1, endoglin S480C, EYFP-tagged; assay: FRET or BRET; microscopic FRET in living CHO cells, ECFP donor and EYFP acceptor, 50 ng of each construct per 100 000 cells, 24 h after transfection, HEPES buffered ringer solution; FRET index (FI) = FRET efficiency x area with FRET; FI<51 no interaction, 51-99 weak or false positive, >=100 interaction; at least 30 cells per sample
[2] = target: T2, endoglin G52V, EYFP-tagged (with an ECFP-tagged copy for the homodimer) (human); assay: as above
[3] = target: T3, endoglin wild-type, split-EYFP (BiFC) fusion (human); assay: split reporter; BiFC with split EYFP (N172, aa 1-172; 173C, aa 173-238) fused to the C-terminus of the endoglin variants; CHO cells co-transfected; fluorescence microscopy; fragments interchanged between the partners
[4] = target: endoglin S480C, split-EYFP (BiFC) fusion (human) (UniProt P17813); assay: as above
[5] = target: T2, endoglin G52V, EYFP-tagged (with an ECFP-tagged copy for the homodimer) (human); assay: FRET or BRET; microscopic FRET in living CHO cells, ECFP donor and EYFP acceptor, 50 ng of each construct per 100 000 cells, 24 h after transfection, HEPES buffered ringer solution; FRET index (FI) = FRET efficiency x area with FRET; FI<51 no interaction, 51-99 weak or false positive, >=100 interaction; at least 30 cells per sample; remark: listed apart in the source

Row | Molecule | binding [2] | binding [3] | further results
1 | ALK1, ECFP- or EYFP-tagged (from UniProt P37023 22-503) (receptor) | no binding |  | binding [1]: no binding
2 | dopamine receptor D1, ECFP-tagged (from UniProt P21728 1-446) | no binding |  | 
3 | B1 |  | binds | 
4 | B2 |  | binds | binding [4]: binds
5 | B3 |  | binds | 
6 | B4 |  | binds | 
7 | B5 |  |  | binding [5]: no binding
8 | B6 | no binding |  | 

Reference: paper PMC4117486, “Investigation of Endoglin Wild-Type and Missense Mutant Protein Heterodimerisation Using Fluorescence Microscopy Based IF, BiFC and FRET Analyses” (PLoS ONE, 2014)
